# Assay results as given in the supplement of paper PMC10126150.
# Sequences with one replicate were seen in a single cluster, so their values are uncertain.
# Test system: ATP
# Assay: switch fluorescence ratio, 500 uM ATP over buffer (Cy3 cluster intensity, sum of 5 cycles each) (fold (ratio)); higher = stronger signal-on switching upon ATP binding; sequences stand for … in TCGTCGGCAGCGTCAGATGTGTATAAGAGACAGTTTTTTTTTTTTTTTTTTTTTTTTT…TC
# Conditions: aptamer strand: ATP DNA aptamer (quencher-CACCTGGGGGAGTATTGCGGAGGAAGG + anchor), 100 nM annealed; ATP concentration: 500 uM; one replicate
# Summary of the method: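 Switching-strand clusters labelled with Cy3 on a modified Illumina MiSeq flow-cell were annealed to 100 nM quencher-labelled ATP aptamer, imaged in selection buffer, and re-imaged after 15 min with 500 uM ATP at 22 °C. This was done over five cycles with NaOH stripping and re-annealing in between. The fluorescence ratio is summed target-cycle over summed buffer-cycle Cy3 intensity per cluster, averaged per switch-domain sequence, excluding clusters outside 100-1000 RFU.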
# 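Note: ATP exposure 15 min at 22 °C before imaging.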
row,Sequence,switch fluorescence ratio
1,GATGT,0.982
2,ACCTTTCTAC,1.65
3,GTGATTTACA,1.03
4,GGGTGAGCCC,1.01
5,GATCTCGTAC,1.09
6,GATCATACAA,1.04
7,GGATTGTTAG,1.01
8,TACGTTTCTT,1.02
9,CATAGGTTT,0.989
10,TGTGAGTCAA,1.19
11,CCTCAAATCA,1.37
12,CGCGATACGG,1.37
13,TTAAATGACA,0.989
14,CTATGGGCGT,0.983
15,GAGTTGGCGG,0.938
16,TTTAACGGTA,1.06
17,TCTCTCGTAA,2.48
18,GTGCAAACAT,1.05
19,AGGTTCGGTT,0.977
20,GCAAGACCAA,1.13
21,TCAGACCAAC,1.18
22,ATCCAAGACA,0.998
23,CTCCATAATT,2.38

row,Sequence,switch fluorescence ratio
1,TTTTTTCCAT,0.985
2,AGGAGTACTC,0.998
3,CTAGTAAGAG,0.967
4,GGACGGTGTA,1.02
5,GACGAGAAAC,1.26
6,GATTAATGCA,0.973
7,ATAATGAAAC,1.05
8,AGATGTCTCC,1.03
9,AACCACACGA,1.34
10,GGCTGTGAAT,1.01
11,CACGCTCTGG,1.08
12,CCTTGTATTG,0.954
13,CAGCACTTGT,0.999
14,CCTTAAGTGG,1.01
15,GGATGCGACT,1.05
16,ACAGCAACTC,2.17
17,TGCCGATCAT,1.01
18,AAAAAACTGA,1.02
19,GGCCATGTTT,1.02
20,ATCAGACATT,0.982
21,CACGAGAGTA,1.04
22,CCGAGTTTGG,1.04
23,ACAAATGCGT,0.997

row,Sequence,switch fluorescence ratio
1,TCTCTTCAAT,1.41
2,TCCAAACGTC,0.89
3,ATGTTCAGTC,1.01
4,GAAGCTTTGG,0.98
5,AAATGTCTGT,1.01
6,TTTTCACGGC,1.04
7,ACTAGCTAGT,0.988
8,CTGTCTCCCT,1.01
9,CCGGTGCTTC,2.3
10,CGGAGTTAAA,1.06
11,CTCCCTAGCG,1.33
12,CCACCGATTC,3.83
13,AGCGGTGTG,1.01
14,GCATTTTAGC,0.981
15,TTTCATACTA,0.98
16,CCAAGGCTT,1.13
17,GCCGTTAAGA,1.01
18,GGGAGGGCAG,0.984
19,GCTCTAAGA,1.08
20,AGGCCAATGT,1.01
21,CGAATGAAAG,0.972
22,ACGAGAATAG,1.08
23,GGCGCAAGAG,4.89

row,Sequence,switch fluorescence ratio
1,TGAATCTTCC,2.63
2,TTTTACACTA,1.04
3,TCTAAATGGT,0.987
4,CATAACATCC,0.995
5,GGGACCGTAC,1.29
6,CCAGCCGTTT,0.994
7,TTGTGTAACG,0.974
8,AAAGGACACT,0.983
9,CATAGCAACT,1.78
10,AAGGTCATAG,1.01
11,AAACGTATTA,1.08
12,TCCCGGGCCC,1.03
13,ACAAATACGG,1.09
14,TCTTGATTGG,1
15,TTCATAGACT,0.983
16,ACCTCCGGT,1.07
17,AAGGTTATA,1.05
18,TGGCTGATTA,0.981
19,CTCGCTAGCC,1.63
20,GCATTCTTGA,0.987
21,CTAAAGGGTG,1.01
22,ACAGGCCCAA,1.03
23,ATGGTCTTAG,1.04

row,Sequence,switch fluorescence ratio
1,TAATAGCTGG,1.03
2,ACATAAGTTA,1.04
3,TGTAATGGAA,0.957
4,ATGTATCGAC,1.04
5,CCACGTGCGA,1.1
6,ACGGTTAGAG,1.01
7,CTAGTTGAGC,1
8,GAGAATTTCG,1.01
9,TTGGTCTGT,0.998
10,CGGTAGAAAG,1.53
11,CTCGCGTGTT,1.01
12,TGTACGGGAG,0.997
13,GCGGTCCCTT,1.01
14,GCCTGGGGTT,1.03
15,ACATCATAGT,1.04
16,TTCAACCGCA,4.51
17,CCAGTGAATT,1.01
18,GAGAGAAATG,0.973
19,CGATGGAAAC,1.72
20,TTTGCTA,1.03
21,GACCGTGCTG,0.917
22,TAGGCATCCT,1.07
23,ACCGCGTAAT,1.07

row,Sequence,switch fluorescence ratio
1,ATTAGTCACT,1.02
2,ATAGTAGAGC,0.987
3,TACAACCTTT,1.18
4,CTAGGGGAAT,0.98
5,CGGGGTAAAA,0.993
6,CCCGGAAT,2.08
7,GATAGGCCGC,1.03
8,AGGGATCATC,0.994
9,TTGGGTATAC,0.952
10,CGGATGGCAC,1.02
11,GTGAGGTTCT,1.02
12,GTGCTCTGCT,0.998
13,AACCTTTGCC,1.67
14,GTGGCATGAG,1.01
15,AATCGGGACA,1.01
16,GGTCCCTGGC,1.06
17,ACAGGTGTA,2.12
18,CTGCGTTGGA,1.03
19,ATACACCATC,1.02
20,GTCTGGGGGG,0.985
21,TTTTTTTTA,1.01
22,TCGCGGGTAT,1.01
23,AGACTCGG,0.956

row,Sequence,switch fluorescence ratio
1,AGGGCATCTA,1
2,ATTGGTCT,0.983
3,AGCCTATAGT,1.02
4,AATTTGCTTA,1.02
5,CGTAGGGTAG,0.961
6,TTGATTTCCC,1.03
7,ACCGACCGGC,1.36
8,TACAGATGGC,0.993
9,CCCTATACAC,1.3
10,GCGGTGTTGT,1.02
11,TGTGAGGGAA,1.04
12,CGTAAATG,1.04
13,GGCCGACACG,0.978
14,GGGGAGTCTC,1.01
15,AGATGATGTC,0.939
16,TGGATAACC,1.07
17,TTGGCCGGGC,0.996
18,GGAGACTATC,1.02
19,GGCTAGATCA,0.994
20,GGTCTTGATT,1.02
